Reference: a compilation of properties of binary mixtures (doi:10.1016/j.molliq.2017.03.036)
The densities may have been worked out from excess volumes.

Assay: xn = mol fraction of the nth substance listed
Conditions: 101 kPa

CN(CCO)CCO + CC(=O)[O-].CC[n+]1ccn(C)c1
x2 = 0
Conditions	mass density [kg/m3]
288.15 K	1044
293.15 K	1040
298.15 K	1036
303.15 K	1032
308.15 K	1029
313.15 K	1025
318.15 K	1021
323.15 K	1017
333.15 K	1009
348.15 K	998
353.15 K	994

CC(=O)[O-].CC[n+]1ccn(C)c1 + CN(CCO)CCO
mass density [kg/m3]
Conditions	x1 = 0.1002	x1 = 0.2002	x1 = 0.2997	x1 = 0.4001	x1 = 0.4995	x1 = 0.5998	x1 = 0.7003	x1 = 0.7998	x1 = 0.8999	x1 = 1
288.15 K	1051	–	1065	1072	–	1084	1090	1096	1101	1106
293.15 K	1048	1055	1062	–	1075	1081	1087	1093	1098	1103
298.15 K	1044	1052	1059	1065	–	1078	1084	1090	1095	1100
303.15 K	1041	–	1055	1062	1069	–	1081	1087	1092	–
308.15 K	1037	1045	1052	1059	1065	1072	1078	1084	–	1094
313.15 K	1034	1042	1049	1056	–	1069	–	–	1086	1091
318.15 K	–	1039	1046	1053	1059	1066	–	1078	–	–
323.15 K	–	1035	1042	1049	1056	1063	1069	1074	1080	–
328.15 K	–	1032	1039	1046	–	–	1066	1071	1077	1082
333.15 K	1020	1028	1036	1043	1050	1056	1063	1068	–	–
338.15 K	1016	1025	1033	1040	1047	1053	1060	1065	1071	1076
343.15 K	1013	1022	1030	–	1044	1050	1057	1062	1068	1073
348.15 K	1009	1018	1026	1034	–	1047	1054	1059	1065	1070
353.15 K	1006	–	1023	1031	1038	–	1051	–	1062	1067
